Laboratory results from the supplement of paper PMC3334620.
Whole data set: some 33,000 sequences, median “E-score (-0.5 to 0.5)” near -0.035, cut for the highest 2% near 0.34. Some of the results follow.

The sequences below were run against T1, Mot3 (UniProt P54785) (assay: PBM E-score (8-mer binding enrichment) (E-score (-0.5 to 0.5)); higher = stronger / more preferred TF binding; most listed sequences are background and not binding sites). Details: protein concentration: 200 nM; construct: GST-full length.
T1 sequence: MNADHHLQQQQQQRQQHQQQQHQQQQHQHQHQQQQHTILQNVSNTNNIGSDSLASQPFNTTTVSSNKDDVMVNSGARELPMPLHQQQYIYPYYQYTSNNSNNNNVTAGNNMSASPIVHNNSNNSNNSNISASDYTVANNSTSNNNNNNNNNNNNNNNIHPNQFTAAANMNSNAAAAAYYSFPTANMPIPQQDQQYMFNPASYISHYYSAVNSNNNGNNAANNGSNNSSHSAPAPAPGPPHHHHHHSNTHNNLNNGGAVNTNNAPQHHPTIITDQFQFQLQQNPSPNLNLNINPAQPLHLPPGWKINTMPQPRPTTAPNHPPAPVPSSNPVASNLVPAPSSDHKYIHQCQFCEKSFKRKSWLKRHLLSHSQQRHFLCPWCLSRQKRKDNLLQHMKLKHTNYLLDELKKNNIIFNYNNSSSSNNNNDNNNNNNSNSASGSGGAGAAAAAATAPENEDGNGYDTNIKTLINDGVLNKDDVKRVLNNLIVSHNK
Method in brief: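 Yeast transcription factors carrying a GST tag, as full-length proteins or DNA-binding domains, were produced by PURExpress in vitro transcription/translation. About 100-200 nM protein was applied to universal all-10-mer Agilent arrays, double-stranded by primer extension on fresh or once-stripped slides. Bound protein was detected with fluorescent anti-GST, and scans were normalised with masliner. The Universal PBM Analysis Suite gave each ungapped eight-base word, pooled with its reverse complement, an E-score, a modified Wilcoxon-Mann-Whitney statistic.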

| Sequence | PBM E-score |
| --- | --- |
| ATTACAGC | 0.127 |
| ACGCATTG | 0.0857 |
| AACGCGAT | 0.104 |
| ATTAGAAT | 0.0758 |
| CGCCAGAG | -0.382 |
| CTGCAAAA | 0.121 |
| GATCGTAA | -0.103 |
| CAGAACCA | -0.0272 |
| CCGAGATC | -0.299 |
| AAAAGATG | 0.11 |
| TATTAAAA | 0.21 |
| GAAGACTC | 0.0295 |
| GGGTGGAA | -0.28 |
| GGTCGTAC | -0.144 |
| CATTAGGA | -0.00514 |
| AGGTAGAT | -0.00737 |
| CCCTTCCG | -0.252 |
| ATATATCC | 0.0159 |
| ACCGCGGT | -0.185 |
| GGAAGTAC | -0.139 |
| TACCAGTA | 0.0471 |
| CTATCCTC | -0.164 |

| Sequence | PBM E-score |
| --- | --- |
| ATATCGGC | -0.196 |
| ACCGACGA | -0.0177 |
| GTCCCGAC | -0.135 |
| GTGCTGAA | -0.0819 |
| CATCGTCA | 0.0766 |
| GTGGGCCA | -0.31 |
| GTTCAGCA | 0.0297 |
| GTCTGTCA | -0.0398 |
| CCCTCTGA | -0.293 |
| AGGAAAAG | 0.305 |
| AATGGATA | -0.0328 |
| ACGCCCGC | -0.235 |
| AACTTTCG | -0.0569 |
| GATGACAC | 0.283 |
| CAACGATG | -0.034 |
| ATCGAGGC | -0.117 |
| ACAGCTCT | -0.141 |
| CCCTTTAC | 0.15 |
| AAAAAGTA | 0.0649 |
| ACTAGAGT | 0.0248 |
| AATCTGCG | -0.181 |
| AACAGTAA | -0.0414 |

| Sequence | PBM E-score |
| --- | --- |
| CTCTAGAG | -0.177 |
| ACTGTTAA | 0.147 |
| ACTGCGAC | -0.123 |
| TATATTAA | 0.211 |
| ACACGTGA | 0.273 |
| ACCGCTAG | -0.124 |
| AAACGAGG | -0.11 |
| TAACTCGA | 0.113 |
| CAGTAGCG | -0.189 |
| AACTTGTC | 0.0707 |
| CTAGGTAA | 0.182 |
| CGTCAGGA | 0.102 |
| GACTGAAC | -0.215 |
| GATGTACA | 0.259 |
| GGTCCAAC | -0.303 |
| AATCGCGG | -0.2 |
| ACCTGGTG | 0.0315 |
| AAAGGAGT | 0.0661 |
| ACAGAATC | -0.108 |
| AGATGTAT | 0.133 |
| CACCTGCC | -0.0248 |
| AAGTCCTC | -0.234 |

| Sequence | PBM E-score |
| --- | --- |
| CGATTATA | 0.0112 |
| CAAGCTCA | -0.115 |
| AGCGGTGG | -0.249 |
| AATCCTGT | 0.159 |
| CCCCCGAC | -0.325 |
| CCTCACCG | -0.2 |
| GTGTTCAA | 0.225 |
| GAGCCAGC | -0.0678 |
| ACCGAGGT | -0.167 |
| CGAATAAC | 0.0678 |
| ACTTTAAA | 0.0778 |
| AGACGTGG | -0.135 |
| AGTGCTCA | -0.101 |
| CTCTCTTA | 0.0471 |
| CGAAGTTA | -0.0312 |
| AAAGCGGC | -0.0864 |
| ACTTTTCC | 0.0601 |
| AGTGTTCC | -0.00943 |
| GGGGACCA | -0.164 |
| CCATGCAC | -0.157 |
